Results on six molecules are retold here after patent US20250051410A1 (KAHR MEDICAL, published 2025).

In the experiment the target is T1, CD47 (human, UniProt Q08722).
T1 construct: whole, on cells; Endogenous CD47 on the cells used; also called hCD47; human CD47
Nature of the experiment: flow cytometry, HT1080 cells (CD47 only) and HT1080-HLA-G cells with anti HLA-G, anti human-IgG1 detection (legend of FIG. 11). As to the method: Binding was determined following immunostaining of the IgG backbone using anti human-IgG1 antibody, followed by flow cytometry analysis. GMFI values are presented and were used to create binding curve graphs with the GraphPad Prism software.

B1: DSP216 WT (Fc fusion)
chain 1: QTGTIPKPTLWAEPDSVITQGSPVTLSCQGSLEAQEYRLYREKKSASWITRIRPELVKNGQFHIPSITWEHTGRYGCQYYSRARWSELSDPLVLVMTGAYPKPTLSAQPSPVVTSGGRVTLQCESQVAFGGFILCKEGEEEHPQCLNSQPHARGSSRAIFSVGPVSPNRRWSHRCYGYDLNSPYVWSSPSDLLELLVPGVSKKPSLSVQPGPVVAPGESLTLQCVSDVGYDRFVLYKEGERDLRQLPGRQPQAGLSQANFTLGPVSRSYGGQYRCYGAHNLSSECSAPSDPLDILITGQIRGTPFISVQPGPTVASGENVTLLCQSWRQFHTFLLTKAGAADAPLRLRSIHEYPKYQAEFPMSPVTSAHAGTYRCYGSLNSDPYLLSHPSEPLELVVSGGGGSGGGGSGGGGS[human IgG1 Fc with changes left out here]
chain 2: [about 350 residues left out here]GGGGSGGGGS[human IgG1 Fc with changes left out here]
As to B1, the binding result was “binds”.

B2: DSP216 V3 (Fc fusion)
chain 1: QTGTIPKPTLWAEPDSVITQGSPVTLSCQGSLEAQEYRLYREKKSASWITRIRPELVKNGQFHIPSITWEHTGRYGCQYYSRARWSELSDPLVLVMTGAYPKPTLSAQPSPVVTSGGRVTLQCESQVAFGGFILCKEGEEEHPQCLNSQPHARGSSRAIFSVGPVSPNRRWSHRCYGYDLNSPYVWSSPSDLLELLVPGVSKKPSLSVQPGPVVAPGESLTLQCVSDVGYDRFVLYKEGERDLRQLPGRQPQAGLSQANFTLGPVSRSYGGQYRCYGAHNLSSECSAPSDPLDILITGQIRGTPFISVQPGPTVASGENVTLLCQSWRQFHTFLLTKAGAADAPLRLRSIHEYPKYQAEFPMSPVTSAHAGTYRCYGSLNSDPYLLSHPSEPLELVVSGGGGSGGGGSGGGGS[human IgG1 Fc with changes left out here]
chain 2: EEELQVIQPDKSVLVAAGETATLRCTATSLIPVGPIQWFRGAGPGRELIYNQKEGHFPRVTTVSDLTKRNNMDFSIRIGNITPADAGTYYCVKFRKGSPDDVEFKSGAGTELSVRAKGGGGSGGGGS[human IgG1 Fc with changes left out here]
Regarding B2, the binding result is listed as “binds”.

B3: DSP216 V6 (Fc fusion)
chain 1: QTGTIPKPTLWAEPDSVITQGSPVTLSCQGSLEAQEYRLYREKKSASWITRIRPELVKNGQFHIPSITWEHTGRYGCQYYSRARWSELSDPLVLVMTGAYPKPTLSAQPSPVVTSGGRVTLQCESQVAFGGFILCKEGEEEHPQCLNSQPHARGSSRAIFSVGPVSPNRRWSHRCYGYDLNSPYVWSSPSDLLELLVPGVSKKPSLSVQPGPVVAPGESLTLQCVSDVGYDRFVLYKEGERDLRQLPGRQPQAGLSQANFTLGPVSRSYGGQYRCYGAHNLSSECSAPSDPLDILITGQIRGTPFISVQPGPTVASGENVTLLCQSWRQFHTFLLTKAGAADAPLRLRSIHEYPKYQAEFPMSPVTSAHAGTYRCYGSLNSDPYLLSHPSEPLELVVSGGGGSGGGGSGGGGSEPKSSDKTHTCPPCPAPEAAGGPSVFLFPPKPKDTLMISRTPEVTCVVVDVSHEDPEVKFNWYVDGVEVHNAKTKPREEQYNSTYRVVSVLTVLHQDWLNGKEYKCKVSNKALPAPIEKTISKAKGQPREPQVCTLPPSRDELTKNQVSLSCAVKGFYPSDIAVEWESNGQPENNYKTTPPVLDSDGSFFLVSKLTVDKSRWQQGNVFSCSVMHEALHNHYTQKSLSLSPGK
chain 2: EEELQVIQPDKSVLVAAGETATLRCTATSLIPVGPIQWFRGAGPGRELIYNQKEGHFPRVTTVSDLTKRNNMDFSIRIGNITPADAGTYYCVKFRKGSPDDVEFKSGAGTELSVRAKGGGGSGGGGS[human IgG1 Fc with changes left out here]
Consider B3, for which the binding result was “binds”.

B4: DSP216 V21 (Fc fusion)
chain 1: QTGTIPKPTLWAEPDSVITQGSPVTLSCQGSLEAQEYRLYREKKSASWITRIRPELRKNGQFHIPSITWEHTGRYGCQYYSRARWSELSDPLVLVMTGAYPKPTLSAQPSPVVTSGGRVTLQCESQVAFGGFILCKEGEEEHPQCLNSQPHARGSSRAIFSVGPVSPNRRWSHRCYGYDLNSPYVWSSPSDLLELLVPGVSKKPSLSVQPGPVVAPGESLTLQCVSDVGYDRFVLYKEGERDLRQLPGRQPQAGLSQANFTLGPVSRSYGGQYRCYGAHNLSSECSAPSDPLDILITGQIRGTPFISVQPGPTVASGENVTLLCQSWRQFHTFLLTKAGAADAPLRLRSIHEYPKYQAEFPMSPVTSAHAGTYRCYGSLNSDPYLLSHPSEPLELVVSGGGGSGGGGSGGGGS[human IgG1 Fc with changes left out here]
chain 2: [about 350 residues left out here]GGGGSGGGGS[human IgG1 Fc with changes left out here]
Regarding B4, the binding result is on record as “binds”.

B5: DSP216 V12 short (Fc fusion)
chain 1: QTGTIPKPTLWAEPDSVITQGSPVTLSCQGSLEAQEYRLYREKKSASWITRIRPELRKNGQFHIPSITWEHTGRYGCQYYSRARWSELSDPLVLVMTGAYPKPTLSAQPSPVVTSGGRVTLQCESQVAFGGFILCKEGEEEHPQCLNSQPHARGSSRAIFSVGPVSPNRRWSHRCYGYDLNSPYVWSSPSDLLELLVPGVSKKPSLSVQPGPVVAPGESLTLQCVSDVGYDRFVLYKEGERDLRQLPGRQPQAGLSQANFTLGPVSRSYGGQYRCYGAHNLSSECSAPSDPLDILITGQIRGTPFISVQPGPTVASGENVTLLCQSWRQFHTFLLTKAGAADAPLRLRSIHEYPKYQAEFPMSPVTSAHAGTYRCYGSLNSDPYLLSHPSEPLELVVSGGGGSGGGGSGGGGSEPKSSDKTHTCPPCPAPEAAGGPSVFLFPPKPKDTLMISRTPEVTCVVVDVSHEDPEVKFNWYVDGVEVHNAKTKPREEQYNSTYRVVSVLTVLHQDWLNGKEYKCKVSNKALPAPIEKTISKAKGQPREPQVCTLPPSRDELTKNQVSLSCAVKGFYPSDIAVEWESNGQPENNYKTTPPVLDSDGSFFLVSKLTVDKSRWQQGNVFSCSVMHEALHNHYTQKSLSLSPGK
chain 2: EEELQVIQPDKSVLVAAGETATLRCTATSLIPVGPIQWFRGAGPGRELIYNQKEGHFPRVTTVSDLTKRNNMDFSIRIGNITPADAGTYYCVKFRKGSPDDVEFKSGAGTELSVRAKGGGGSGGGGS[human IgG1 Fc with changes left out here]
With B5, the binding result is “binds”.

B6: DSP216 V21 short (Fc fusion)
chain 1: QTGTIPKPTLWAEPDSVITQGSPVTLSCQGSLEAQEYRLYREKKSASWITRIRPELRKNGQFHIPSITWEHTGRYGCQYYSRARWSELSDPLVLVMTGAYPKPTLSAQPSPVVTSGGRVTLQCESQVAFGGFILCKEGEEEHPQCLNSQPHARGSSRAIFSVGPVSPNRRWSHRCYGYDLNSPYVWSSPSDLLELLVPGVSKKPSLSVQPGPVVAPGESLTLQCVSDVGYDRFVLYKEGERDLRQLPGRQPQAGLSQANFTLGPVSRSYGGQYRCYGAHNLSSECSAPSDPLDILITGQIRGTPFISVQPGPTVASGENVTLLCQSWRQFHTFLLTKAGAADAPLRLRSIHEYPKYQAEFPMSPVTSAHAGTYRCYGSLNSDPYLLSHPSEPLELVVSGGGGSGGGGSGGGGS[human IgG1 Fc with changes left out here]
chain 2: EEELQVIQPDKSVLVAAGETATLRCTATSLIPVGPIQWFRGAGPGRELIYNQKEGHFPRVTTVSDLTKRNNMDFSIRIGNITPADAGTYYCVKFRKGSPDDVEFKSGAGTELSVRAKGGGGSGGGGS[human IgG1 Fc with changes left out here]
For the molecule B6, the binding result is reported as “binds”.
